Measured values taken from patent US12338291B2, “Humanized antibody molecules to CD138 and uses thereof” (VISTERRA, INC., priority 2019, dated 2025).

Test: Differential scanning fluorescence (DSF) thermal stability
Format: physicochemical
Settings: PBS pH 7.4, 25-95 °C
Text: Thermal stability represents an important property of antibodies and is used as a predictive surrogate of pharmaceutical drug stability in humans based on a relative stability profile as characterized by differential thermal melting profiles. Several methods exist for evaluation of product stability based on thermal melting. These include, for example, circular dichroism (CD), differential scanning calorimetry (DSC), and differential scanning fluorescence (DSF), among others. In this example, the thermal stabilities of select humanized anti-CD138 antibodies were evaluated by DSF. DSF was used to monitor the conformational stability of a protein as it was exposed to increasing thermal stress. The dye, SYPRO Orange®, fluoresces in a hydrophobic environment, such as hydrophobic core residues that are exposed during thermally triggered protein unfolding, or denaturation. In brief, SYPRO® Orange Dye (Sigma Chemical) was diluted 1:500 in phosphate buffered saline (PBS), pH 7.4, without addition of any detergents. Antibodies were likewise diluted in PBS to a target concentration of 0.5 mg/mL. […] Thermal scans were carried out using a real-time quantitative PCR (qPCR) thermal cycler with fluorescence detection capabilities. […] TMs were then calculated based on transformation of the data using the first derivative of the fluorescence signal versus time. […]

B1: mAb 4320: humanized anti-CD138 IgG1 kappa antibody; VH SEQ ID NO: 471, VL SEQ ID NO: 475; HC SEQ ID NO: 527, LC SEQ ID NO: 528 (antibody)
heavy: QVQLVQSGAEVKKPGASVKVSCKASGYSFSSYYMHWVRQAPGQGLEWMGTIHPSDSTTNYNQKFQGRVTMTVDTSTRTAYMELSSLRSEDTAVYYCANFVYWGQGTTVTVSSASTKGPSVFPLAPSSKSTSGGTAALGCLVKDYFPEPVTVSWNSGALTSGVHTFPAVLQSSGLYSLSSVVTVPSSSLGTQTYICNVNHKPSNTKVDKRV[human IgG1 Fc not spelt out]
light: DIVMTQTPLSLSVTPGQPASISCKSSKSLLYKDGKTYLNWFLQKPGQSPQLLIYVVSTRASGVPDRFSGSGSGTDFTLKISRVEAEDVGVYYCQQLVEYPYTFGQGTKLEIKRTVAAPSVFIFPPSDEQLKSGTASVVCLLNNFYPREAKVQWKVDNALQSGNSQESVTEQDSKDSTYSLSSTLTLSKADYEKHKVYACEVTHQGLSSPVTKSFNRGEC
**Q.** Which TM1 (first thermal transition) does the source give for B1 here?
**A.** 68.9 °C

**Q.** What about the TM2 (second thermal transition) of the same molecule?
**A.** 77.7 °C
